Reference: the supplement of paper PMC12217912
This is one part of the list. Sequences were assembled here from the parent chain. Values near 0.05 are background.

B1: TEV protease; numbered along this chain (parent)
chain: MGESLFKGPRDYNPISSSICHLTNESDGHTTSLYGIGFGPFIITNKHLFRRNNGTLVVQSLHGVFKVKDTTTLQQHLVDGRDMIIIRMPKDFPPFPQKLKFREPQREERICLVTTNFQTKSMSSMVSDTSCTFPSGDGIFWKHWIQTKDGQCGSPLVSTRDGFIVGIHSASNFTNTNNYFTSVPKNFMELLTNQEAQQWVSGWRLNADSVLWGGHKVFMVKPEEPFQPVKEATQL

Variants of: B1
Experiment: raw area under fraction-flipped curve 0-4 h after induction (AUC4h, not background-subtracted), DNA-recorder readout of cleavage of the substrate (dimensionless); higher = more cleavage of the substrate by the protease variant
Conditions: temperature: 34 °C; time window: 0-4 h after rhamnose induction
Experimental: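 In vivo DNA recorder in E. coli TOP10(DE3) ΔrhaA at 34 °C. Each TEVp single-site mutant (parent TEVp 0) is paired with a single-site variant of the 7-mer TEVs (canonical ENLYFQ|S). The substrate sits between flexible linkers in a Bxb1-sfGFP-TEVs-SsrA fusion, so cleavage stabilises Bxb1 and speeds flipping of a recombination array, read by NGS. The value is the raw area under the fraction-flipped curve over 0-4 h after rhamnose induction (AUC4h), with ≥20 reads per time point. It is not background-subtracted; inactive controls average about 0.047.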
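Note: Bxb1 expression induced with 0.2% (w/v) L-rhamnose at OD600 near 0.5, cultures sampled hourly, flipped fraction per protease–substrate barcode pair counted by paired-end Illumina sequencing.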

| Variant | area with substrate EALYFQS | area with substrate ECLYFQS | area with substrate EELYFQS | area with substrate EFLYFQS | area with substrate EHLYFQS | area with substrate EILYFQS | area with substrate EKLYFQS | area with substrate ELLYFQS | area with substrate EMLYFQS | area with substrate ERLYFQS | area with substrate EWLYFQS | area with substrate EDLYFQS | area with substrate EGLYFQS | area with substrate EQLYFQS | area with substrate EPLYFQS | area with substrate ESLYFQS | area with substrate EYLYFQS | area with substrate ETLYFQS | area with substrate EVLYFQS |
| --- | --- | --- | --- | --- | --- | --- | --- | --- | --- | --- | --- | --- | --- | --- | --- | --- | --- | --- | --- |
| T132Y | 0.056 | 0.0553 | 0.0492 | 0.0425 | 0.0663 | 0.054 | 0.0531 | 0.074 | 0.0552 | 0.0507 | 0.054 |  |  |  |  |  |  |  |  |
| T132S | 0.129 | 0.0991 |  |  |  | 0.0814 |  | 0.0862 |  |  | 0.0818 | 0.104 | 0.0954 | 0.1 |  |  |  |  |  |
| T132F | 0.0673 | 0.0607 | 0.0688 | 0.051 |  | 0.0658 |  | 0.0804 |  | 0.0551 |  | 0.0634 | 0.0458 | 0.056 | 0.064 | 0.0612 | 0.0616 |  |  |
| T132G | 0.112 | 0.0844 | 0.0632 | 0.0983 | 0.0604 | 0.0933 | 0.0763 | 0.103 | 0.09 | 0.0798 | 0.118 | 0.117 |  | 0.0978 |  | 0.0838 | 0.0897 | 0.0857 | 0.0865 |
| T115C | 0.12 | 0.111 | 0.126 |  | 0.1 | 0.0977 |  |  |  | 0.105 | 0.102 | 0.107 | 0.0911 | 0.119 | 0.12 | 0.109 | 0.11 | 0.134 |  |
| M125L | 0.122 | 0.102 |  | 0.144 |  | 0.122 | 0.0979 | 0.0972 | 0.129 | 0.118 | 0.106 | 0.104 |  | 0.113 | 0.137 | 0.122 |  |  |  |
| D128H | 0.129 | 0.13 |  |  |  | 0.13 | 0.128 | 0.114 |  | 0.13 |  | 0.151 | 0.115 | 0.116 |  | 0.135 |  |  |  |
| F117M | 0.104 | 0.0948 | 0.1 |  | 0.103 | 0.086 |  |  |  |  |  |  |  |  |  | 0.109 |  | 0.0903 |  |
| S121A | 0.104 | 0.109 | 0.115 | 0.0503 | 0.0998 | 0.103 | 0.154 |  |  | 0.16 |  |  |  | 0.121 |  |  | 0.0996 |  | 0.0981 |
| S121Y | 0.126 | 0.132 | 0.125 |  |  |  |  |  | 0.106 |  |  |  | 0.0995 |  | 0.111 | 0.128 |  |  | 0.0782 |
| S121E | 0.101 | 0.0975 | 0.125 |  |  | 0.0905 |  |  |  |  | 0.0951 |  | 0.0917 | 0.137 | 0.0664 |  |  |  |  |
| P134E | 0.129 | 0.117 | 0.0865 | 0.081 | 0.0901 | 0.0919 | 0.0578 |  |  | 0.0934 | 0.0753 |  | 0.0859 | 0.0838 | 0.147 | 0.0999 |  | 0.091 | 0.103 |
| M122Y | 0.113 | 0.107 | 0.115 | 0.105 | 0.106 | 0.0928 | 0.125 | 0.0749 | 0.0953 | 0.114 |  | 0.135 |  | 0.117 | 0.127 | 0.0875 |  | 0.115 | 0.0987 |
| M122K | 0.129 | 0.0554 |  | 0.126 |  | 0.0871 | 0.109 |  |  |  |  | 0.119 | 0.0767 | 0.114 |  | 0.0935 |  |  |  |
| M122P | 0.115 | 0.104 |  | 0.116 | 0.117 | 0.0989 | 0.121 |  | 0.136 | 0.121 | 0.102 | 0.113 |  | 0.131 | 0.118 | 0.106 |  |  | 0.0998 |
| N116A | 0.115 | 0.0925 | 0.115 |  | 0.106 | 0.0942 | 0.11 |  | 0.131 |  |  | 0.0781 | 0.145 | 0.108 | 0.106 | 0.0983 |  |  | 0.0491 |
| T114M | 0.155 | 0.108 |  |  | 0.13 | 0.0866 | 0.123 | 0.1 |  | 0.0913 | 0.0771 | 0.117 | 0.0751 | 0.117 |  |  |  |  | 0.11 |
| Q118N | 0.116 | 0.0978 | 0.143 |  |  |  |  |  | 0.116 | 0.111 | 0.0851 |  | 0.11 |  | 0.131 | 0.0945 |  | 0.0896 |  |
| Q118A | 0.107 | 0.119 | 0.119 |  |  | 0.0969 | 0.108 | 0.0932 | 0.0818 | 0.104 | 0.094 | 0.154 |  | 0.0994 | 0.121 | 0.12 | 0.114 | 0.126 | 0.119 |
| Q118F | 0.114 | 0.0924 | 0.101 |  | 0.103 | 0.0839 |  | 0.0939 | 0.103 |  | 0.107 | 0.131 | 0.0878 |  | 0.118 | 0.107 |  | 0.12 | 0.0931 |
| Q118H | 0.129 | 0.111 |  | 0.118 | 0.112 | 0.0764 | 0.119 |  |  |  |  | 0.107 |  |  | 0.102 | 0.102 |  | 0.153 |  |
| Q118G | 0.128 | 0.103 |  | 0.0793 |  | 0.0946 | 0.0914 |  | 0.128 | 0.0418 | 0.1 | 0.13 | 0.0865 | 0.12 | 0.131 | 0.112 |  | 0.112 | 0.111 |
| V113N | 0.073 | 0.0537 | 0.0863 | 0.0632 |  | 0.0571 | 0.0719 |  | 0.0659 | 0.0612 | 0.0566 |  |  | 0.0561 |  | 0.0674 |  | 0.0655 | 0.0324 |
| V113L | 0.108 | 0.11 | 0.131 |  | 0.0844 | 0.0713 | 0.114 | 0.0937 | 0.131 | 0.116 | 0.103 | 0.118 | 0.0922 | 0.109 | 0.147 | 0.103 | 0.13 | 0.127 | 0.0902 |
| F133D | 0.145 | 0.0965 | 0.16 |  | 0.111 | 0.0931 | 0.108 | 0.0839 | 0.126 | 0.0756 | 0.0999 | 0.141 |  | 0.105 |  | 0.16 |  | 0.0932 | 0.033 |
| K120L | 0.108 | 0.116 | 0.101 |  |  | 0.118 |  |  |  |  |  | 0.14 |  | 0.0886 |  | 0.0826 |  | 0.103 | 0.072 |
| S123T | 0.0907 | 0.0845 |  | 0.0842 |  | 0.0899 | 0.098 | 0.071 | 0.119 | 0.116 | 0.0786 | 0.077 |  |  |  | 0.104 |  |  | 0.186 |
| T129P | 0.112 | 0.0928 | 0.0918 |  | 0.0859 | 0.0803 | 0.0672 | 0.0891 | 0.139 | 0.11 | 0.0979 | 0.087 | 0.0877 | 0.104 |  | 0.101 | 0.0856 |  | 0.0855 |
